Assay results: patent US12551573B2, “Compositions and methods for the targeting of PCSK9” (Scribe Therapeutics Inc., priority 2022, dated 2026)

B1: DOMAIN_22285 (protein, listed as Trichechus manatus)
chain: KTQVSLEFNDVAVEFAWEEWQLLDPAQKDLYREVMLENFHNLVSVGCQVGKPDVLFRLEREPPWSLEDEIHSQNFSEIQEV
B2: DOMAIN_451 (protein, listed as Pan paniscus)
chain: MVHGSVTFRDVAIDFSQEEWECLQPDQRTLYRDVMLENYSHLISLGSSISKPDVITLLEQEKEPWMVVRKETSRRYPDLES
B3: DOMAIN_22425 (protein, listed as Aotus trivirgatus)
chain: SQEPVTFADVAVVFTPEEWVFLDSTQRSLYRDVMLENYRNLASVAGDQLCKPNALSYLEQRGEQWTTERGVISDTCPEPQL
B4: DOMAIN_22220 (protein, listed as Pan paniscus)
chain: MMTFRDVAIDFSQEEWKWLQPAQRDLYRCVMLENYGHLVSLGLSISKPDVVSLLEQGKEPWLGKKGISESSGEIKDFSPKN
B5: DOMAIN_22383 (protein, listed as Pteropus vampyrus)
chain: TQESVTFRDVAVHFSRDEWLYLDPAQRALYREVMLENYSSLVSLGILFSKPKVIFQLQQGEDPWMVENGVSCGACLGWESL
B6: DOMAIN_421 (protein, listed as Pan paniscus)
chain: MIEYQIPVSFKDVVVGFTQEEWHQLSPAQRALYRDVMLETYSNLVSVGYEGTKPDVILRLEQEEAPWIGEAACPGCHCWGK
B7: DOMAIN_22166 (protein, listed as Trichechus manatus)
chain: FQESVTFEDVAVYFTQSQWASLGPLQRALYREVMLENYANVASLAFPFPKPVLISQLEREEAPLGPDPWETEVLRDICPGG
B8: DOMAIN_22192 (protein, listed as Trichechus manatus)
chain: TQVSLTFDDVAVKLTWEEWQLLDPAQKDLYRDVMLENYSNLVSVGYQVSKPDALSRLERGEPPWSIEDKIHTRTFSGERPY
B9: DOMAIN_22297 (protein, listed as Sarcophilus harrisii)
chain: HQDLVTFKDVAVDFTPEEWGQLVPSQKELYRDVMLENYQNLVWLGLAVSKPDVIYQLEQVGGTWVPEGETLTVSCSDFVTR
B10: DOMAIN_22158 (protein)
chain: LQVSVSFEDVAVDFSREEWQQLDSTQRRLYQDVMLENYSHLLSLGCEIPKPEVIFKLEQGEEPWTLEEETPHQSCSDEKFG
modifications: Lipotes vexillifer
B11: DOMAIN_22322 (protein, listed as Tursiops truncatus)
chain: QPQEAVTFKDVEVTFSQDEWGWLDASQRNLYRDVMLENYGNVTSLVGPFTKPALISWLEAREPWGLNVQGAHPKRSPSAAP
B12: DOMAIN_22268 (protein)
chain: ELVTFRDVVISFSQEEWEYLDSAQRDLYWDVMMENYSNLVSLDLESKYDKKTLSTEKDIIEKNDSQWEVIESSKLVGLANS
modifications: Lipotes vexillifer
B13: DOMAIN_22366 (protein, listed as Aotus trivirgatus)
chain: AIRSVMFSDISIDFSPEEWEYLDLEQKDLYRDVMLENYSNLVSLGCFISKPDVISLLEQGKEPWKVVRKRRRQYPEMLLLL
B14: DOMAIN_22407 (protein, listed as Aotus trivirgatus)
chain: EPGAVTFGDVAVYFSREEWGCLRPAQRALYRDVTRETYSHLGALGVGGSKPALISWMEEEAELWGPAAQDPEVAKCPTEAD
B15: DOMAIN_22280 (protein, listed as Pteropus vampyrus)
chain: SQSLVTFGDVAVDFSQEEWERLSSDQRDLYRRVMLENYRNLVSLGLCFSKPDIISSLEQRKELWMAKREVTRGQCPDWKAV

Tested on: HBEGF locus
Type: cell-based, human
Settings: high-throughput screen of dXR repression of the HBEGF gene
[1] = abundance of each domain in the library before vs after diphtheria toxin selection, listed domains met p-value <0.01 and log2(fold change) >2
[2] = change in abundance of each domain in the library before and after diphtheria toxin selection

| Molecule | Log2 (fold change) [1] | Log2 (fold change) [2] |
| --- | --- | --- |
| B1 | 3.0261 | – |
| B2 | – | 3.0774 |
| B3 | 3.0333 | – |
| B4 | 2.8922 | – |
| B5 | 3.4752 | – |
| B6 | – | 3.2969 |
| B7 | 4.2024 | – |
| B8 | 2.8134 | – |
| B9 | 2.4261 | – |
| B10 | 2.0562 | – |
| B11 | 3.4452 | – |
| B12 | 2.6534 | – |
| B13 | 4.848 | – |
| B14 | 2.5308 | – |
| B15 | 3.1521 | – |

Read-outs that look alike come from different tables or passages of the source.
